Source: the supplement of paper PMC11417369
The other results are listed elsewhere or left out.

The sequences below were run on PF3D7_0420300 AP2 domain 1 (GST-tagged) (assay: gcPBM binding intensity (ln(normalized median fluorescence intensity)); higher = stronger DNA binding).
How it was run: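 Each value is the highest Masliner-normalised natural-log median intensity across replicate spots of either orientation of a probe. The probes were primer-extended double-stranded 36-bp intergenic genomic sequences on an Agilent 4 × 180k array, alongside negative controls, exposed for 1 h to GST-tagged P. falciparum DNA-binding domains expressed in E. coli. Bound protein was picked up with Alexa488 anti-GST antibody and scanned at 488 nm.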

Sequence	gcPBM binding intensity (ln)
ATATATATATATAAAAGTACATGCTTATATATATAT [XGTACX_site3786]	9.26
TTTAAAAATGCTACATGTACAAAATAAAATATAATA [XGTACX_site2905]	9.28
AAGTTTATCACAGCCACGCACACATAATATATGTAT [CACACA_site3670]	9.49
TATATAAACATACATACACACATACAATAAGTAAAA [CACACA_site5118]	9.9
CACCCACTAATAAACACACACATATATATATATATA [CACACA_site389]	9.62
ATTTTTTTTATTCAATGTACTTTTTTTTATATATAT [XGTACX_site4978]	9.67
AATAAAATGAGATGTTGTACAGTTTTGATATATGCA [XGTACX_site3052]	9.33
TACTTACCAAAATACACACACACACCCAATATATAA [CACACA_site1871]	10.1
TTAAAAATATATGAATGTACATATATTTATATATAT [XGTACX_site77]	8.97
TTTAAATTATGAAATTGTACATATAAAAATATTTTA [XGTACX_site4796]	8.77
TTTTTTTTATTAGTGTGTACGCATTTATTTATACAT [XGTACX_site1599]	9.48
TATATATTATTTAAAACACACAAAAAAAAAAATTAT [CACACA_site89]	9.59
TATATTGAATGCAAAAGTACATTTGTGTAAATTTAT [XGTACX_site7611]	9.11
TTTTTTTTTTTAAAATGTACACGTAATTACATATAT [XGTACX_site752]	9.19
TGATGGTTACGTTTATGTACACATTACAGTTAGTAT [XGTACX_site998]	9.29
TTTTTGTATTCTACCTTAACAATCTTAAAGATTTTT [CACACA_negctrl_site1157]	9.04
TTAAAAATTATATAAGTGCATTAATATTTAGAACAA [GTGCAC_site9773]	9.14
ACTACATTATTGCATTGTACTTTTTTTTTTTTTTTA [XGTACX_site4605]	9.57
GAGTTAATATTTAAAAGTACAAGATGAATGTAAAAA [XGTACX_site5810]	9.42
AAAATATATTAAGGCACACACATACATATATATATA [CACACA_site3723]	9.81
AATATTACAAAATATTGTCCGTACAAATTTTTAATA [XGTACX_site8129]	9.07
AAAAAAAAAAAAAAGACACACATATATATATATATA [CACACA_site633]	9.15
GATGATAAAATATGTACACACAGTTTATACATTTTG [CACACA_site4055]	9.56

Sequence	gcPBM binding intensity (ln)
ATATACATATATATGGGTACATATATTAATATATAT [XGTACX_site8358]	9.2
TCTGTTAATATTTATACACACATATTTATTTATATA [CACACA_site6658]	9.52
TTAACATATTATAAGTGTACATATTTATAAACAAGA [XGTACX_site8806]	9.31
ATTTTGAAAAATAAAAGTACATATAATATATCTACA [XGTACX_site7185]	8.94
CACTCCATATTATACACACACACAAATGAAAAAAAT [CACACA_site3019]	10.1
TTTAGATATATGGTAGTGCATAATAAAAATATAGCC [GTGCAC_site9449]	9.24
GCTTCTTAGTATACTTTATAAAATATATATTAAATA [XGTACX_negctrl_site57]	9.27
TAAAATATAATAAAATGTACACGCATGCAATAGAAT [XGTACX_site7434]	9.65
ATATCGGGTGCATTAACACACATTTATTTGAATAAA [CACACA_site2350]	9.24
ATATTAAATATAATTTGTACGCATTTTTTTTTTTTT [XGTACX_site1910]	9.3
ATATATCATAATAGAGGTACACATATTATATATATA [XGTACX_site782]	9.29
TTTATAAATATATATACACACACATATATATTATAT [CACACA_site8099]	9.74
AATTATAATTAATAGAGTACTGAATATATATATATA [XGTACX_site8683]	9.26
TTCCCTTTTTTTATTTGTACTTATCTTTTAAATAAT [XGTACX_site2497]	9.66
AGCATTTTTCATTTTGCACACATGTTTTATGTGTAT [CACACA_site3454]	9.65
TGTTTATTTTTAAAAAGTACATATATAAAAAATATC [XGTACX_site4902]	8.87
ATAATTTGGAAACACACACACACACCCACATATATA [CACACA_site2286]	10.3
TTAAATGAAAAATGGGGTACATATATACAAATATAT [XGTACX_site5931]	9.31
AAAAAAAAATACTACTGTACTTTTTTTGGACATCTA [XGTACX_site1096]	8.97
TGATTATACGCACGCGCACACACAACCAAAAAAAAA [CACACA_site3537]	9.57
AAAAAAGGAAAAGATACACACCGTAAATTAAAATTT [CACACA_site5908]	9.78
GAAGGAATATACAATTGTACTTGGCAAAAAAAAAAA [XGTACX_site1884]	9.08
